In the supplement of paper PMC4967469:
Lines with a small IC50 respond at low doses; a fit beyond the top or the lowest dose is shown as a bound at that dose. AUC, from the same fit, is the share of area under the viability curve across the 256-fold dose range; the more sensitive the line, the further below 1. For part of these data: Any top dose called inferred was calculated from the reported fits. For part of these data: Where an entry number is given, a second screen of the drug exists; the two often differ.

What was measured:
Assay in all cases: Viability of human cancer cell lines after 72 h of drug (GDSC screen)
Thapsigargin = compound: C/C=C(/C)C(=O)O[C@H]1C(C)=C2[C@H]([C@@H]1OC(=O)CCCCCCC)[C@@](C)(OC(C)=O)C[C@H](OC(=O)CCC)[C@@]1(O)[C@H]2OC(=O)[C@@]1(C)O [Thapsigargin]; settings: top dose 0.512 µM; top dose inferred
Protocol: (§1)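 Human cancer cell lines in 384-well plates, medium with 10% serum, drug for 72 h over a 256-fold dose range (nine 2-fold or five 4-fold steps up to the top dose). Adherent lines were fixed and stained with the nucleic acid dye Syto60, suspension lines read with resazurin; signal relative to control wells, capped at 0 and 100%. One two-parameter sigmoid per drug and line, fitted in a mixed model over all curves with the slope shared within a line.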

QL-X-138 = compound: C=CC(=O)Nc1cc(-n2c(=O)ccc3cnc4ccc(-c5cn[nH]c5)cc4c32)ccc1C [QL-X-138]; settings: top dose 10.24 µM; top dose inferred
Protocol: as §1

GSK269962A = compound: CCn1c(-c2nonc2N)nc2cnc(Oc3cccc(NC(=O)c4ccc(OCCN5CCOCC5)cc4)c3)cc21 [GSK269962A]; settings: top dose inferred
Protocol: as §1

MPS-1-IN-1 = compound: COc1cc(N2CCC(O)CC2)ccc1Nc1cc(Nc2ccccc2S(=O)(=O)C(C)C)c2cc[nH]c2n1 [MPS-1-IN-1]; settings: top dose 20 µM; top dose inferred
Protocol: as §1

(5Z)-7-Oxozeaenol = compound: COc1cc(O)c2c(c1)/C=C/C[C@H](O)[C@H](O)C(=O)/C=C\C[C@H](C)OC2=O [(5Z)-7-Oxozeaenol]; settings: top dose 10 µM; top dose inferred
Protocol: as §1

CP466722 = compound: COc1cc2ncnc(-n3nc(-c4ccccn4)nc3N)c2cc1OC [CP466722]; settings: top dose 16 µM; top dose inferred
Protocol: as §1

Zibotentan = compound: COc1nc(C)cnc1NS(=O)(=O)c1cccnc1-c1ccc(-c2nnco2)cc1 [Zibotentan]; settings: top dose 20 µM; top dose inferred
Protocol: as §1

CMK = compound: Cc1ccc(-c2c(C(=O)CCl)n(CCCO)c3ncnc(N)c23)cc1 [CMK]; settings: top dose 4 µM; top dose inferred
Protocol: as §1

ABT-869 = compound: Cc1ccc(F)c(NC(=O)Nc2ccc(-c3cccc4[nH]nc(N)c34)cc2)c1 [ABT-869]; settings: top dose 1.024 µM; top dose inferred
Protocol: as §1

CHIR-99021 = compound: Cc1cnc(-c2cnc(NCCNc3ccc(C#N)cn3)nc2-c2ccc(Cl)cc2Cl)[nH]1 [CHIR-99021]
Protocol: as §1

Cytarabine = compound: Nc1ccn([C@@H]2O[C@H](CO)[C@@H](O)[C@@H]2O)c(=O)n1 [Cytarabine]; settings: top dose 2 µM
Protocol: as §1

KU-55933 = compound: O=c1cc(-c2cccc3c2Sc2ccccc2S3)oc(N2CCOCC2)c1 [KU-55933]; settings: top dose 10 µM
Protocol: as §1

ABT-888 = compound: C[C@]1(c2nc3c(C(N)=O)cccc3[nH]2)CCCN1 [ABT-888]; settings: top dose 5 µM; top dose inferred
Protocol: as §1

[1] = top dose 2.5 µM, screen: GDSC drug entry 127
[2] = top dose 5 µM, screen: GDSC drug entry 1192
[3] = top dose 2.56 µM, screen: GDSC drug entry 154
[4] = top dose 10 µM, screen: GDSC drug entry 1241, top dose inferred

| Cell Line | AUC (Thapsigargin) | IC50 (Thapsigargin) [µM] | AUC (QL-X-138) | IC50 (QL-X-138) [µM] | AUC (GSK269962A; [1]) | IC50 (GSK269962A; [1]) [µM] | AUC (GSK269962A; [2]) | IC50 (GSK269962A; [2]) [µM] | AUC (MPS-1-IN-1) | IC50 (MPS-1-IN-1) [µM] | AUC ((5Z)-7-Oxozeaenol) | IC50 ((5Z)-7-Oxozeaenol) [µM] | AUC (CP466722) | IC50 (CP466722) [µM] | AUC (Zibotentan) | IC50 (Zibotentan) [µM] | AUC (CMK) | IC50 (CMK) [µM] | AUC (ABT-869) | IC50 (ABT-869) [µM] | AUC (CHIR-99021; [3]) | IC50 (CHIR-99021; [3]) [µM] | AUC (CHIR-99021; [4]) | IC50 (CHIR-99021; [4]) [µM] | AUC (Cytarabine) | IC50 (Cytarabine) [µM] | AUC (KU-55933) | IC50 (KU-55933) [µM] | AUC (ABT-888) | IC50 (ABT-888) [µM] |
| --- | --- | --- | --- | --- | --- | --- | --- | --- | --- | --- | --- | --- | --- | --- | --- | --- | --- | --- | --- | --- | --- | --- | --- | --- | --- | --- | --- | --- | --- | --- |
| Daudi (Burkitt lymphoma, suspension) | 0.172 | 0.0039 | 0.324 | 0.222 | 0.871 | 1.85 | 0.857 | 3.27 | 0.859 | 13.3 | 0.607 | 1.18 | 0.977 | > 16 | 0.988 | > 20 | 0.886 | 3.42 | 0.99 | > 1.02 | 0.969 | > 2.56 | 0.968 | > 10 | 0.985 | > 2 | 0.971 | > 10 |  |  |
| KMS-12-BM (myeloma, suspension) | 0.181 | 0.00448 | 0.459 | 0.504 | 0.991 | > 2.5 |  |  | 0.843 | 10.7 |  |  | 0.613 | 1.92 | 0.987 | > 20 | 0.888 | 3.14 | 0.991 | > 1.02 | 0.991 | > 2.56 |  |  | 0.942 | > 2 |  |  | 0.991 | > 5 |
| LB2241-RCC (kidney, adherent) | 0.62 | 0.0714 | 0.984 | > 10.2 | 0.835 | 1.93 | 0.734 | 1.59 | 0.97 | > 20 | 0.479 | 0.544 | 0.984 | > 16 | 0.984 | > 20 | 0.661 | 0.743 | 0.984 | > 1.02 | 0.976 | > 2.56 | 0.63 | 1.5 | 0.394 | 0.0615 |  |  | 0.977 | > 5 |
| LU-139 (small cell lung carcinoma, suspension) | 0.594 | 0.0624 |  |  | 0.948 | > 2.5 | 0.847 | > 5 | 0.961 | > 20 | 0.672 | 2.18 | 0.719 | 5.05 | 0.933 | > 20 | 0.919 | > 4 | 0.947 | > 1.02 | 0.944 | > 2.56 | 0.98 | > 10 | 0.956 | > 2 |  |  | 0.899 | > 5 |
| NCI-H1963 (small cell lung carcinoma, suspension) | 0.609 | 0.0612 |  |  | 0.831 | 1.31 |  |  | 0.991 | > 20 |  |  |  |  | 0.986 | > 20 | 0.807 | 1.74 |  |  | 0.991 | > 2.56 |  |  | 0.965 | > 2 |  |  | 0.991 | > 5 |
| RL95-2 (endometrium, adherent) |  |  | 0.947 | > 10.2 | 0.94 | > 2.5 | 0.881 | > 5 | 0.803 | 9.76 | 0.753 | 3.32 | 0.913 | > 16 | 0.986 | > 20 | 0.849 | 2.97 | 0.986 | > 1.02 | 0.987 | > 2.56 | 0.986 | > 10 | 0.721 | 0.524 |  |  | 0.987 | > 5 |
| RPMI-8402 (T-cell lymphoblastic leukaemia, suspension) | 0.22 | 0.00581 | 0.499 | 0.635 | 0.881 | 1.89 | 0.826 | 2.41 | 0.803 | 8.08 | 0.533 | 0.755 | 0.455 | 0.771 | 0.988 | > 20 | 0.818 | 1.81 | 0.986 | > 1.02 | 0.991 | > 2.56 | 0.978 | > 10 |  |  | 0.946 | > 10 | 0.991 | > 5 |
| SF126 (glioma, adherent) | 0.491 | 0.0303 | 0.756 | 3.68 | 0.89 | > 2.5 | 0.907 | > 5 | 0.964 | > 20 | 0.62 | 1.36 | 0.82 | 9.86 | 0.985 | > 20 | 0.928 | > 4 | 0.986 | > 1.02 | 0.983 | > 2.56 | 0.901 | > 10 |  |  | 0.971 | > 10 | 0.984 | > 5 |
| SF268 (glioma, adherent) | 0.157 | 0.00252 | 0.683 | 2.18 | 0.852 | 2.17 | 0.832 | 3.55 | 0.86 | 18.8 | 0.717 | 2.72 | 0.895 | > 16 | 0.97 | > 20 | 0.964 | > 4 | 0.978 | > 1.02 | 0.983 | > 2.56 | 0.917 | > 10 |  |  | 0.972 | > 10 | 0.983 | > 5 |
| SIMA (neuroblastoma, adherent) | 0.524 | 0.0374 | 0.858 | > 10.2 | 0.888 | > 2.5 | 0.883 | > 5 | 0.814 | 12.7 | 0.588 | 1.13 | 0.852 | 15 | 0.971 | > 20 | 0.958 | > 4 | 0.985 | > 1.02 | 0.963 | > 2.56 | 0.96 | > 10 |  |  | 0.982 | > 10 | 0.985 | > 5 |
